# Assay results: patent US20240140957A1, “BRIDGED COMPOUNDS AS KRAS G12D INHIBITOR AND DEGRADER AND THE USE THEREOF” (BeiGene Switzerland GmbH, priority 2021, published 2024)
# Molecular target: KRAS G12D HiBiT in HEK293 KRAS-G12D NanoLuc cell pool (Homo sapiens, UniProt P01116, G12D)
# Test: KRAS G12D NanoLuc Assay
# Settings: for Dmax: HEK293, read-out: KRAS G12D NanoLuc Dmax; for DC50: read-out: KRAS G12D NanoLuc DC50, HEK293 KRAS-G12D NanoLuc cell pool, 24 h compound treatment
# Protocol: HEK293 KRAS-G12D) NanoLuc cell pool was used in this study. The cells were stable expressing KRAS G12D HiBiT and LgBiT. Cells were maintained in DMEM supplemented with 1000 fetal bovine serum (Thermo Fisher), 50 units/mL penicillin and streptomycin (Thermo Fisher) and kept at 37° C. in a humidified atmosphere of 5% CO2 in air. Cells were reinstated from frozen stocks that were laid down within 30 passages from the cell pool was constructed. 20000 cells per well were seeded a 96-well White with Clear Flat bottom plate for 4 h. Cells were treated with a 10-point dilution series. The final compound concentration is from 0 to 10 μM. After 24 h compound treatment, added 20 μL of CellTiter-Fluor reagent (Promega) to plates, shook for 2 min, incubated at least 30 min in 37° C. Added 25 μL of NanoGlo Live cell reagent (Promega) to the same plate. Shook by mini-shaker for 5 min. Measure Luminescence and Fluorescence (380-400 nmEx/505 nmEm) signals immediately using a PHERAstar FSX reader (BMG Labtech). DC50 determination was performed by filling the curve of percent inhibition versus the log of the inhibitor concentration using Excel and GraphPad Prism 8.
SMILES,Dmax [%],DC50 [nM]
"Cc1ncsc1-c1ccc([C@H](C)NC(=O)[C@@H]2C[C@@H](O)CN2C(=O)[C@@H](NC(=O)CCCCCCN2CCC[C@H]2COc2nc(N3CC4CCC(C3)N4)c3cc(Cl)c(-c4ccc(F)c5sc(N)nc45)c(F)c3n2)C(C)(C)C)cc1 [Example E46, (2S,4R)-1-((2S)-2-(7-((2S)-2-(((7-(2-amino-7-fluorobenzo[d]thiazol-4-yl)-4-(3,8-diazabicyclo[3.2.1]octan-3-yl)-6-chloro-8-fluoroquinazolin-2-yl)oxy)methyl)pyrrolidin-1-yl)heptanamido)-3,3-dimethylbutanoyl)-4-hydroxy-N—((S)-1-(4-(4-methylthiazol-5-yl)phenyl)ethyl)pyrrolidine-2-carboxamide]",79,432
"Cc1ncsc1-c1ccc([C@H](C)NC(=O)[C@@H]2C[C@@H](O)CN2C(=O)[C@@H](NC(=O)CCCC2CCN(C[C@H](C)Oc3nc(N4CC5CCC(C4)N5)c4cc(Cl)c(-c5ccc(F)c6sc(N)nc56)c(F)c4n3)CC2)C(C)(C)C)cc1 [Example E47, (2S,4R)-1-((2S)-2-(4-(1-((2S)-2-((7-(2-amino-7-fluorobenzo[d]thiazol-4-yl)-4-(3,8-diazabicyclo[3.2.1]octan-3-yl)-6-chloro-8-fluoroquinazolin-2-yl)oxy)propyl)piperidin-4-yl)butanamido)-3,3-dimethylbutanoyl)-4-hydroxy-N—((S)-1-(4-(4-methylthiazol-5-yl)phenyl)ethyl)pyrrolidine-2-carboxamide]",74,622
"Cc1ncsc1-c1ccc([C@H](C)NC(=O)[C@@H]2C[C@@H](O)CN2C(=O)[C@@H](NC(=O)CCCCCCN2CCC[C@H]2COc2nc(N3C4CCC3CNC4)c3cc(Cl)c(-c4ccc(F)c5sc(N)nc45)c(F)c3n2)C(C)(C)C)cc1 [Example E45, (2S,4R)-1-((2S)-2-(7-((2S)-2-(((7-(2-amino-7-fluorobenzo[d]thiazol-4-yl)-4-(3,8-diazabicyclo[3.2.1]octan-8-yl)-6-chloro-8-fluoroquinazolin-2-yl)oxy)methyl)pyrrolidin-1-yl)heptanamido)-3,3-dimethylbutanoyl)-4-hydroxy-N—((S)-1-(4-(4-methylthiazol-5-yl)phenyl)ethyl)pyrrolidine-2-carboxamide]",73,824
"Cc1ncsc1-c1ccc([C@H](C)NC(=O)[C@@H]2C[C@@H](O)CN2C(=O)[C@@H](NC(=O)COC2CCN(CC(C)Oc3nc(N4CC5CCC(C4)N5)c4cc(Cl)c(-c5ccc(F)c6sc(N)nc56)c(F)c4n3)CC2)C(C)(C)C)cc1 (stereo partly drawn) [Example E44, (2S,4R)-1-((2S)-2-(2-((1-(2-((7-(2-amino-7-fluorobenzo[d]thiazol-4-yl)-4-(3,8-diazabicyclo[3.2.1]octan-3-yl)-6-chloro-8-fluoroquinazolin-2-yl)oxy)propyl)piperidin-4-yl)oxy)acetamido)-3,3-dimethylbutanoyl)-4-hydroxy-N—((S)-1-(4-(4-methylthiazol-5-yl)phenyl)ethyl)pyrrolidine-2-carboxamide]",65,975
"Cc1cc(N)nc(-c2c(Cl)cc3c(N4CC5CCC(C4)N5)nc(OC[C@@H]4CCCN4CCCCCCC(=O)N[C@H](C(=O)N4C[C@H](O)C[C@H]4C(=O)N[C@@H](C)c4ccc(-c5scnc5C)cc4)C(C)(C)C)nc3c2F)c1C(F)(F)F [Example E48, (2S,4R)-1-((2S)-2-(7-((2S)-2-(((7-(6-amino-4-methyl-3-(trifluoromethyl)pyridin-2-yl)-4-(3,8-diazabicyclo[3.2.1]octan-3-yl)-6-chloro-8-fluoroquinazolin-2-yl)oxy)methyl)pyrrolidin-1-yl)heptanamido)-3,3-dimethylbutanoyl)-4-hydroxy-N—((S)-1-(4-(4-methylthiazol-5-yl)phenyl)ethyl)pyrrolidine-2-carboxamide]",77,642
